In US11685745B2, “Substituted benzoxazole and benzofuran compounds as PDE7 inhibitors” (Dart NeuroScience, LLC, priority 2017, dated 2023):

Biological target: N-terminal truncated recombinant human PDE7B enzyme (Homo sapiens (Human), UniProt Q9NP56)
Experiment: biochemical

SMILES | IC50 [µM]
O=C1Nc2c(Cl)cc3cc(CNCc4ccccn4)oc3c2C2(CCCCC2)N1 [Example 480, 5′-Chloro-2′-{[(pyridin-2-ylmethyl)amino]methyl}-7′,8′-dihydro-6′H-spiro[cyclohexane-1,9′-furo[2,3-f]quinazoline]-7′-one] | 0.01 to 0.1
O=C1Nc2c(Cl)cc3nc(CN4CC(F)(F)C4)oc3c2C2(CCCCC2)N1 [Example 45, 5-Chloro-2-[(3,3-difluoroazetidin-1-yl)methyl]-7,8-dihydro-6H-spiro[[1,3]oxazolo[5,4-f]quinazoline-9,1′-cyclohexane]-7-one] | 0.01 to 0.1
O=C1Nc2c(Cl)cc3cc(C(=O)N4CCn5c(-c6ccccc6)cnc5C4)oc3c2C2(CCCCC2)N1 [Example 319, 5′-Chloro-2′-{3-phenyl-5H,6H,7H,8H-imidazo[1,2-a]pyrazine-7-carbonyl}-7′,8′-dihydro-6′H-spiro[cyclohexane-1,9′-furo[2,3-f]quinazoline]-7′-one] | 0.01 to 0.1
N#Cc1cccnc1N1CCN(Cc2cc3cc(Cl)c4c(c3o2)C2(CCCCC2)NC(=O)N4)CC1 [Example 510, 2-(4-{5′-Chloro-7′-oxo-7′,8′-dihydro-6′H-spiro[cyclohexane-1,9′-furo[2,3-f]quinazoline]-2′-ylmethyl}piperazin-1-yl)pyridine-3-carbonitrile] | 0.1 to 1
COCC1(NCc2nc3cc(Cl)c4c(c3o2)C2(CCCCC2)NC(=O)N4)CCOCC1 [Example 166, 5-Chloro-2-({[4-(methoxymethyl)oxan-4-yl]amino}methyl)-7,8-dihydro-6H-spiro[[1,3]oxazolo[5,4-f]quinazoline-9,1′-cyclohexane]-7-one] | 0.01 to 0.1
CC1(C)CC(NC(=O)c2cc3cc(Cl)c4c(c3o2)C2(CCCCC2)NC(=O)N4)CC(C)(C)O1 [Example 321, 5′-Chloro-7′-oxo-N-(2,2,6,6-tetramethyloxan-4-yl)-7′,8′-dihydro-6′H-spiro[cyclohexane-1,9′-furo[2,3-f]quinazoline]-2′-carboxamide] | 0.01 to 0.1
COC1CCN(Cc2nc3cc(Cl)c4c(c3o2)C2(CCCCC2)NC(=O)N4)C1 (centres unmarked) [Example 125, 5-Chloro-2-[(3-methoxypyrrolidin-1-yl)methyl]-7,8-dihydro-6H-spiro[[1,3]oxazolo[5,4-f]quinazoline-9,1′-cyclohexane]-7-one] | 0.01 to 0.1
O=C1Nc2c(Cl)cc3nc(C(=O)N4CCN5CCC[C@H]5C4)oc3c2C2(CCC(F)(F)CC2)N1 [Example 221, 2-[(8aS)-Octahydropyrrolo[1,2-a]piperazine-2-carbonyl]-5-chloro-4′,4′-difluoro-7,8-dihydro-6H-spiro[[1,3]oxazolo[5,4-f]quinazoline-9,1′-cyclohexane]-7-one] | 0.1 to 1
CCN1CCN(C(=O)c2cc3cc(Cl)c4c(c3o2)C2(CCCCC2)NC(=O)N4)CC1 [Example 231, 5′-Chloro-2′-(4-ethylpiperazine-1-carbonyl)-7′,8′-dihydro-6′H-spiro[cyclohexane-1,9′-furo[2,3-f]quinazoline]-7′-one] | 0.01 to 0.1
O=C1Nc2c(Cl)cc3cc(C(=O)N(CC4CCC4)CC4CCCO4)oc3c2C2(CCCCC2)N1 (centres unmarked) [Example 356, 5′-Chloro-N-(cyclobutylmethyl)-7′-oxo-N-(oxolan-2-ylmethyl)-7′,8′-dihydro-6′H-spiro[cyclohexane-1,9′-furo[2,3-f]quinazoline]-2′-carboxamide] | 0.01 to 0.1
O=C1Nc2c(Cl)cc3cc(C(=O)N4CCN(CC(F)(F)F)CC4)oc3c2C2(CCCCC2)N1 [Example 238, 5′-Chloro-2′-[4-(2,2,2-trifluoroethyl)piperazine-1-carbonyl]-7′,8′-dihydro-6′H-spiro[cyclohexane-1,9′-furo[2,3-f]quinazoline]-7′-one] | 0.01 to 0.1
O=C1Nc2c(Cl)cc3nc(CNCC4CCCCN4)oc3c2C2(CCCCC2)N1 (centres unmarked) [Example 54, 5-Chloro-2-{[(piperidin-2-ylmethyl)amino]methyl}-7,8-dihydro-6H-spiro[[1,3]oxazolo[5,4-f]quinazoline-9,1′-cyclohexane]-7-one] | 0.01 to 0.1
CCC(=O)N1CCC2(CCCN(C(=O)c3cc4cc(Cl)c5c(c4o3)C3(CCCCC3)NC(=O)N5)C2)CC1 [Example 390, 5′-Chloro-2′-{9-propanoyl-2,9-diazaspiro[5.5]undecane-2-carbonyl}-7′,8′-dihydro-6′H-spiro[cyclohexane-1,9′-furo[2,3-f]quinazoline]-7′-one] | 0.01 to 0.1
COCCN1CCN(C(=O)c2cc3cc(Cl)c4c(c3o2)C2(CCCCC2)NC(=O)N4)CC1 [Example 233, 5′-Chloro-2′-[4-(2-methoxyethyl)piperazine-1-carbonyl]-7′,8′-dihydro-6′H-spiro[cyclohexane-1,9′-furo[2,3-f]quinazoline]-7′-one] | 0.01 to 0.1
CN(C)CC1CCN(Cc2cc3cc(Cl)c4c(c3o2)C2(CCCCC2)NC(=O)N4)CC1 [Example 488, 5′-Chloro-2′-({4-[(dimethylamino)methyl]piperidin-1-yl}methyl)-7′,8′-dihydro-6′H-spiro[cyclohexane-1,9′-furo[2,3-f]quinazoline]-7′-one] | > 1
CO[C@@H]1CCCN(Cc2nc3cc(Cl)c4c(c3o2)C2(CCCCC2)NC(=O)N4)C1 [Example 117, 5-Chloro-2-{[(3R)-3-methoxypiperidin-1-yl]methyl}-7,8-dihydro-6H-spiro[[1,3]oxazolo[5,4-f]quinazoline-9,1′-cyclohexane]-7-one] | 0.01 to 0.1

SMILES | IC50 [µM]
O=C1Nc2c(Cl)cc3nc(CNCCc4ccon4)oc3c2C2(CCCCC2)N1 [Example 172, 5-Chloro-2-({[2-(1,2-oxazol-3-yl)ethyl]amino}methyl)-7,8-dihydro-6H-spiro[[1,3]oxazolo[5,4-f]quinazoline-9,1′-cyclohexane]-7-one] | 0.01 to 0.1
COCC1(NC(=O)c2cc3cc(Cl)c4c(c3o2)C2(CCCCC2)NC(=O)N4)CCOCC1 [Example 388, 5′-Chloro-N-[4-(methoxymethyl)oxan-4-yl]-7′-oxo-7′,8′-dihydro-6′H-spiro[cyclohexane-1,9′-furo[2,3-f]quinazoline]-2′-carboxamide] | 0.01 to 0.1
COCCNCc1cc2cc(Cl)c3c(c2o1)C1(CCCCC1)NC(=O)N3 [Example 582, 5′-Chloro-2′-{[(2-methoxyethyl)amino]methyl}-7′,8′-dihydro-6′H-spiro[cyclohexane-1,9′-furo[2,3-f]quinazoline]-7′-one] | 0.1 to 1
O=C1Nc2c(Cl)cc3nc(CNC4CCOCC4)oc3c2C2(CCCCC2)N1 [Example 145, 5-Chloro-2-{[(oxan-4-yl)amino]methyl}-7,8-dihydro-6H-spiro[[1,3]oxazolo[5,4-f]quinazoline-9,1′-cyclohexane]-7-one] | 0.01 to 0.1
O=C1Nc2c(Cl)cc3cc(C(=O)NCCc4ccco4)oc3c2C2(CCCCC2)N1 [Example 413, 5′-Chloro-N-[2-(furan-2-yl)ethyl]-7′-oxo-7′,8′-dihydro-6′H-spiro[cyclohexane-1,9′-furo[2,3-f]quinazoline]-2′-carboxamide] | 0.01 to 0.1
CCN(CCC#N)C(=O)c1cc2cc(Cl)c3c(c2o1)C1(CCCCC1)NC(=O)N3 [Example 418, 5′-Chloro-N-(2-cyanoethyl)-N-ethyl-7′-oxo-7′,8′-dihydro-6′H-spiro[cyclohexane-1,9′-furo[2,3-f]quinazoline]-2′-carboxamide] | 0.01 to 0.1
CCCN(C)Cc1cc2cc(Cl)c3c(c2o1)C1(CCCCC1)NC(=O)N3 [Example 550, 5′-Chloro-2′-{[methyl(propyl)amino]methyl}-7′,8′-dihydro-6′H-spiro[cyclohexane-1,9′-furo[2,3-f]quinazoline]-7′-one] | 0.1 to 1
O=C1Nc2c(Cl)cc3cc(CN4CCCCC4CCO)oc3c2C2(CCCCC2)N1 (centres unmarked) [Example 468, 5′-Chloro-2′-{[2-(2-hydroxyethyl)piperidin-1-yl]methyl}-7′,8′-dihydro-6′H-spiro[cyclohexane-1,9′-furo[2,3-f]quinazoline]-7′-one] | 0.1 to 1
Cc1nc(CNC(=O)c2cc3cc(Cl)c4c(c3o2)C2(CCCCC2)NC(=O)N4)n(C)c1C [Example 343, 5′-Chloro-7′-oxo-N-[(trimethyl-1H-imidazol-2-yl)methyl]-7′,8′-dihydro-6′H-spiro[cyclohexane-1,9′-furo[2,3-f]quinazoline]-2′-carboxamide] | 0.01 to 0.1
N#CC1CN(Cc2cc3cc(Cl)c4c(c3o2)C2(CCCCC2)NC(=O)N4)C1 [Example 522, 1-{5′-Chloro-7′-oxo-7′,8′-dihydro-6′H-spiro[cyclohexane-1,9′-furo[2,3-f]quinazoline]-2′-ylmethyl}azetidine-3-carbonitrile] | 0.01 to 0.1
O=C1Nc2c(Cl)cc3cc(C(=O)N4CCN(CCO)CC4)oc3c2C2(CCCCC2)N1 [Example 255, 5′-Chloro-2′-[4-(2-hydroxyethyl)piperazine-1-carbonyl]-7′,8′-dihydro-6′H-spiro[cyclohexane-1,9′-furo[2,3-f]quinazoline]-7′-one] | 0.01 to 0.1
Cn1nccc1CNCc1cc2cc(Cl)c3c(c2o1)C1(CCCCC1)NC(=O)N3 [Example 541, 5′-Chloro-2′-({[(1-methyl-1H-pyrazol-5-yl)methyl]amino}methyl)-7′,8′-dihydro-6′H-spiro[cyclohexane-1,9′-furo[2,3-f]quinazoline]-7′-one] | 0.01 to 0.1
CCN1CCN(Cc2nc3cc(Cl)c4c(c3o2)C2(CCCCC2)NC(=O)N4)CC1=O [Example 58, 5-Chloro-2-[(4-ethyl-3-oxopiperazin-1-yl)methyl]-7,8-dihydro-6H-spiro[[1,3]oxazolo[5,4-f]quinazoline-9,1′-cyclohexane]-7-one] | 0.01 to 0.1
CCC(O)CNC(=O)c1cc2cc(Cl)c3c(c2o1)C1(CCCCC1)NC(=O)N3 (centres unmarked) [Example 263, 5′-Chloro-N-(2-hydroxybutyl)-7′-oxo-7′,8′-dihydro-6′H-spiro[cyclohexane-1,9′-furo[2,3-f]quinazoline]-2′-carboxamide] | 0.01 to 0.1
O=C1Nc2c(Cl)cc3nc(CN4CCC(CO)C4)oc3c2C2(CCCCC2)N1 (centres unmarked) [Example 116, 5-Chloro-2-{[3-(hydroxymethyl)pyrrolidin-1-yl]methyl}-7,8-dihydro-6H-spiro[[1,3]oxazolo[5,4-f]quinazoline-9,1′-cyclohexane]-7-one] | 0.01 to 0.1
CC(C)C(CO)NC(=O)c1cc2cc(Cl)c3c(c2o1)C1(CCCCC1)NC(=O)N3 (centres unmarked) [Example 252, 5′-Chloro-N-(1-hydroxy-3-methylbutan-2-yl)-7′-oxo-7′,8′-dihydro-6′H-spiro[cyclohexane-1,9′-furo[2,3-f]quinazoline]-2′-carboxamide] | 0.01 to 0.1
